The record followed here is PubChem BioAssay AID488969 (Vanderbilt High Throughput Screening Facility, 2010).

Whole data set: some 110,000 compounds, median “z-score” near -0.1, cut for the highest 2% near 2. This is one part of the list. Calls of active or inactive are those of the source.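 How the source made its calls: active means z-score in the third read window above 3 or below -3; inactive means the rest.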

In the assay the target is Metabotropic glutamate receptor 8 (Rattus norvegicus) (UniProt P70579). Nature of the assay: rat mGluR8 modulators via GIRK flux, primary screen, cell-based, thallium flux, HTS (AID 488969). Particulars: HEK293 rat mGluR8, GIRK (G protein-gated inwardly rectifying potassium channel) thallium flux, FluoZin2; at 10 µM; stronger effect = higher value; submaximal glutamate (EC20) added with thallium.
UniProt P70579, sequence (P70579 whole entry, looked up): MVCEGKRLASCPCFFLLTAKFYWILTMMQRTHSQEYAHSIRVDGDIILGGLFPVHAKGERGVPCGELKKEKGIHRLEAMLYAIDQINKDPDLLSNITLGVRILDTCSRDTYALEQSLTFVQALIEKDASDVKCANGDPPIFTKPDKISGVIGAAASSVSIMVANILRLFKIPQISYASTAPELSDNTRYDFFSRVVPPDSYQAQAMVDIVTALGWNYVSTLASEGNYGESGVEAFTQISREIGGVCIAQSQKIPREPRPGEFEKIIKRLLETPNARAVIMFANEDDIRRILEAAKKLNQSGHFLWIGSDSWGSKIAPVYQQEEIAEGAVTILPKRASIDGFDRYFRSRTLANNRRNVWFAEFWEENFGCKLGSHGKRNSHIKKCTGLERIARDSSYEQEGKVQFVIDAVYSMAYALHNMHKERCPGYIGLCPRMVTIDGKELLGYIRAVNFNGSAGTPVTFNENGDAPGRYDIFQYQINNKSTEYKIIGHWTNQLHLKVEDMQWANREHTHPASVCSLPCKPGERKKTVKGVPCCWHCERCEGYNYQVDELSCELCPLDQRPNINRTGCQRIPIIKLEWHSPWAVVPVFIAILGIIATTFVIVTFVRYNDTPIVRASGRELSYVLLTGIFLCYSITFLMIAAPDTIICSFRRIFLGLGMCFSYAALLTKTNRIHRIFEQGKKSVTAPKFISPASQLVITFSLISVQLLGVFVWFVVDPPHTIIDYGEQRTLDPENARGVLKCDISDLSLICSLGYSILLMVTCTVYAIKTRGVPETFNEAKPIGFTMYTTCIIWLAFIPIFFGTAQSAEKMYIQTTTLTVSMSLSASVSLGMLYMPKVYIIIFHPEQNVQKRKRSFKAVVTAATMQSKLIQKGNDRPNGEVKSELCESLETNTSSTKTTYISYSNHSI
Regarding `O=C(Cn1cnc2ccccc2c1=O)NCCC(=O)N1CCN(c2ccccc2)CC1`, the z-score came out at 0.0185. In the case of `CCCn1c(CCc2ccccc2)nnc1SCC(=O)N1CCOCC1`, the z-score is -0.0332. The same measure for `O=C(CCCN1C(=O)CCC1=O)Nc1ccc(Br)cc1F`: -0.113; for `CCC(COC(=O)Nc1cccc(C)c1)NC(=O)OCC(C)C` (stereo unspecified): 0.0388; for `O=C(c1ccc(COc2ccccc2[N+](=O)[O-])o1)N1CCCCC1`: -1.25.

Take `CCC(C)(C)NC(=O)C(c1ccccc1F)N(Cc1ccco1)C(=O)c1csnn1` (stereo unspecified): the z-score was -0.468.

In turn, `Cc1ccc(OCC(=O)N/N=C/c2c[nH]c3ccccc23)c([N+](=O)[O-])c1` had a z-score of 0.0177.

For `COCCN(CC(=O)Nc1cccc(C)c1)S(=O)(=O)c1ccc(S(=O)(=O)N2CCCC2)cc1`, the z-score was determined as 0.00397. Next, `CCOC(=O)c1c(NC(=S)Nc2ccc(Cl)cc2)sc(C)c1C`: -0.0912. The same measure for `CC(C)=N/N=C1/NC(=O)C(CC(=O)Nc2cc(Cl)ccc2C)S1` (stereo unspecified): -0.221. Next, `O=C(CN1c2ccccc2Sc2ccccc21)NNC(=S)Nc1ccc(Cl)cc1Cl`: -0.138.

As for `CCN(CC)CCn1c2ccc(F)cc2c2nc(C)sc21`, the z-score worked out at 0.189. Next, `O=C(N/C(=C/c1cccs1)c1nc2ccccc2[nH]1)c1ccccc1`: -0.0894; `CC12CCC(C(=O)Nc3cccc4ccccc34)(C1Br)C2(C)C` (stereo unspecified): -0.149; `Cc1cc(NC(=O)c2cccc(C(=O)Nc3cc(C)on3)n2)no1`: -0.219. The same measure for `COC(=O)/C(C#N)=C1/C=Cc2ccccc2N1C`: 0.0446; for `O=C(NCc1cccs1)Nc1ccc(Cl)cc1`: 0.449. Next, `Cc1cc(/C=c2/sc3nc4ccccc4n3c2=O)c(C)n1-c1ccccn1`: active: 6.08; `Cc1nnc(NC(=O)CSc2ncnc3scc(-c4ccccc4)c23)s1`: 0.176.

Compound `CC(C)c1ccc2oc(-c3ccc(NC(=O)c4ncn[nH]4)cc3)nc2c1` came in with a z-score of 0.303. Turning to `COc1ccc(CCNC(=O)CCn2cccc2)cc1OC`, the z-score is -0.462. `CCCCC1S/C(=N/N=C/c2ccc(OC)cc2)N(Cc2ccc(OC)cc2)C1=O` (stereo unspecified): the z-score is -0.524.

In turn, `Cc1ccc(-n2c(Cc3cccn3C)nnc2SCC(=O)Nc2ccc3c(c2)OCO3)cc1` displayed a z-score of 0.172. The same measure for `CC(C)CCn1cnc2c(NCc3ccccc3)ncnc21`: 2.07; for `Cc1ccc(/C=c2\sc3n(c2=O)CN(c2cccc(Br)c2)CN=3)o1`: 0.126; for `CCOC(=O)C1CCN(C(=O)Nc2ccc3nccnc3c2)CC1`: -0.389. The same measure for `O=c1c2c3c(sc2nc2sc(C4CC4)nn12)CCCC3`: -0.164. With `Cn1ncc(N=Cc2ccccc2O)c1C(=O)Nc1ccccc1`, the z-score was -0.273.

In the case of `Cc1ccc(C(=O)O)cc1N=Cc1cc(Br)cc(Br)c1O`, the z-score was -0.485. `O=C(Nc1nc(-c2ccccc2)c(C(=O)c2ccccc2)s1)c1ccc(S(=O)(=O)N2CCCC2)cc1` gave a z-score of -0.0475. The same measure for `Cc1cc(NS(=O)(=O)c2ccc(NC(=O)C(C)Oc3ccc4c(C)cc(=O)oc4c3)cc2)no1` (stereo unspecified): -0.145. Take `Cc1cc(Oc2ccccc2)nc(SCC(N)=O)n1`: the z-score was found to be 0.736. Turning to `Cc1oc2c(c1C(=O)NCc1cc(C(=O)O)co1)CCCC2`, the z-score was -0.0342. Next, `O=C(NCCN1CCOCC1)c1cc(Sc2cccc(Cl)c2)nc2ccccc12`: -0.923; `Cc1cccc2c(=O)c(C(=O)N3CCCCCC3)c[nH]c12`: -0.0936; `CS(=O)(=O)C1=NSC2=NC(=O)/C(=C\c3ccc(-c4ccccc4)o3)C(=N)N21`: -0.142. Next, `COc1ccc(S(=O)(=O)N(C)C)cc1NCC(=O)Nc1ccc(F)cc1F`: -0.182.

The compound `COc1ccc(N=C(C)C2=C(O)c3ccccc3C2=O)cc1` came in with a z-score of -1.01. Next, `Cc1c(C)n(C(=O)CN2CCN(c3ccccn3)CC2)c2ccccc12`: -0.164; `Cc1ccc(OCCCn2cc(C#N)c3ccccc32)cc1`: 0.717; `O=C(CCN1C(=O)c2ccccc2C1=O)NCCC1=CCCCC1`: 0.108. Next, `COc1ccc(Oc2nc(C(F)(F)F)nc3ccccc23)cc1`: -0.576; `CCN(CC1COc2ccccc2O1)S(=O)(=O)c1ccc(C)cc1` (stereo unspecified): 0.877. The same measure for `CN(C)CC/C=C1/c2ccccc2Sc2c(O)cc(Cl)cc21`: 1.62; for `C/C(=N/NC(=O)c1cccc(C)c1)c1c(O)cc(C)oc1=O`: 0.213. Consider `NC1=NC(=O)/C(=C/c2cn(Cc3ccccc3)c3ccccc23)S1`, for which the z-score is 0.0563. Next, `CCOc1c(C)cc(-c2ncccc2O)cc1C`: 0.108; `CCn1c(COc2cccc3ccccc23)nnc1SCC(=O)OC1CCCCC1`: 0.216. Next, `Cc1cc2c(cc1C)C(c1cccc([N+](=O)[O-])c1)CC(=O)N2` (stereo unspecified): 0.14; `Cc1ccc(NC(=O)CN2C(=O)/C(=C\c3cccs3)SC2=S)cc1`: -0.912.

In the case of `Cc1nc2ccccc2nc1N1CCOCC1`, the z-score was -0.094.

Compound `O=C(Nc1ncccn1)c1cc([N+](=O)[O-])cc([N+](=O)[O-])c1` returned a z-score of -0.131. In the case of `CCS(=O)(=O)c1nn2c(N)c(/C=C3/C=CC(=O)C(OC)=C3)c(=O)nc2s1`, the z-score is -0.412. The same measure for `CCCCC(=O)NNC(=S)NC(=O)CCC`: -0.0201. Next, `S=c1[nH]nc(-c2ccco2)n1/N=C/c1cccc(Cl)c1Cl`: active: 5.73; `Cc1nnc(-n2ncc(C#N)c2N)c2nn(-c3cccc(Cl)c3)c(C)c12`: 0.0208. The same measure for `O=S(=O)(NCc1ccccn1)c1ccccc1`: -0.362. In turn, `O=C(NNC(=O)C1CCN(S(=O)(=O)c2ccc(Cl)cc2)CC1)c1ccc(Cl)cc1` came in with a z-score of -0.165. The same measure for `Cc1ccc(C2CC(c3cccs3)=NN2S(=O)(=O)c2ccc(C)cc2)cc1` (stereo unspecified): -0.276. The same measure for `CCOC(=O)C1CCN(C(=O)CSc2ccccc2)CC1`: -0.375. Next, `O=C(NCc1ccco1)Nc1ccc2snnc2c1`: -0.0412; `OC(CN=c1sc2ccccc2n1CC(O)COc1ccccc1)COc1ccccc1` (stereo unspecified): 0.0732. In the case of `Cc1ccc(S(=O)(=O)N(C)CC(=O)NC2CC(C)(C)NC(C)(C)C2)cc1`, the z-score came out at 0.0551. The same measure for `CC(=O)Nc1ccc(-c2nn[nH]n2)cc1Cl`: 1.27.

Compound `Cc1ccc(C2C(=O)N(C3CCC(C)CC3)CC(=O)N2C2CC2)cc1` (stereo unspecified) registered a z-score of -0.153. In turn, `CC(CN1CCCCC1)OC(=O)c1cc2ccccc2o1` (stereo unspecified) had a z-score of -0.467.

For the compound `CCCCN1C(=O)/C(=C(/C#N)C(N)=O)c2ccccc21`, the z-score is -0.233. The same measure for `Cn1cc(/C=N/n2cnc3scc(-c4ccc(Cl)cc4)c3c2=O)c2ccccc21`: 0.699; for `COc1ccc(S(=O)(=O)N2CCN(C(=O)c3cnc(C)cn3)CC2)cc1`: 0.314; for `CCOC(=O)c1ccc(NC(=O)NS(=O)(=O)c2ccc(C)cc2)cc1`: -0.301. Next, `Cc1noc(C)c1CSc1nc2sc3c(c2c(=O)n1C)CCCC3`: 0.514.
